Source: paper PMC12223841, “Compounds Isolated from Paepalanthus spp. (Eriocaulaceae) and Their Evaluation in Antimicrobial, Cytotoxic, and Antiviral Assays” (ACS Omega, 2025)

Molecular target: ZIKV NS2B-NS3pro (Zika virus, UniProt A0A024B7W1)
Experiment: biochemical

For `COc1c(O)cc2oc(-c3ccc(O)cc3)c(OC3OC(COC(=O)C=Cc4ccc(O)cc4)C(O)C(O)C3O)c(=O)c2c1O` [Compound 4, 6-Methoxykaempferol-3-O-β-D-6″-(p-coumaroyl)-glycopyranoside], the IC50 was 1950 nM.
